The values below come from PubChem BioAssay AID2202238 (Ras Initiative Chemistry Research Team, Frederick National …, 2025).

The experiment concerns the target GTPase KRas (Homo sapiens) (UniProt P01116). Briefly: Covalent labelling of cysteine mutants by fragments, read by mass spectrometry (AID 2202238). Further details: protein at 5 µM with 500 µM competing thiol for 1.5 h. The note with it: KRAS G12D cysteine mutants, disulfide tethering, MALDI-TOF labeling, stronger effect = higher value, fragment at 500 µM.
UniProt P01116, sequence (P01116 whole entry, looked up, the tested form may be a part): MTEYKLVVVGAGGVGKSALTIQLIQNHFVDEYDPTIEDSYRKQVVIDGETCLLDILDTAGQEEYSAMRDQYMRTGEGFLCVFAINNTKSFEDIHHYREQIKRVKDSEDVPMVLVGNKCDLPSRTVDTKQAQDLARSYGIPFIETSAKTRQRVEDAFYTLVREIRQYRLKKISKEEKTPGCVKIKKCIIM
Setting [1] is: measured here: G75C mutant labeling.
Where [2] appears, read: measured here: H94C mutant labeling.
Where [3] appears, read: measured here: I36C mutant labeling.
The mark [4] stands for this setting: measured here: L120C mutant labeling.
Where [5] appears, read: measured here: M67C mutant labeling.
The mark [6] stands for this setting: measured here: M72C mutant labeling.
Where [7] appears, read: measured here: N86C mutant labeling.
The mark [8] stands for this setting: measured here: P121C mutant labeling.
[9] abbreviates: measured here: S122C mutant labeling.
[10] abbreviates: measured here: S136C mutant labeling.
Setting [11] is: measured here: G60C mutant labeling.
Where [12] appears, read: measured here: N26C mutant labeling.

Some of the results follow. The main result of the screen is listed elsewhere. These columns were measured beside it and carry no call.

`O=C(CCS)N1CCC(O)(C(F)(F)F)CC1`: the percent labeling amounted to 16.4% under setting [1]; 27.6% under setting [2]; 33.8% under setting [3]; 40.1% under setting [4]; 31% under setting [5]; 31.5% under setting [6]. For the same molecule, the percent labeling worked out at 36.6% under setting [7], 36.9% under setting [8], 37.8% under setting [9] and 54.6% under setting [10].

On to `Cc1cc(CN2CCN(C(=O)CCS)CC2)on1`, for which the percent labeling reads like this: under setting [1], 11.1%; under setting [2], 31.4%; under setting [3], 37.1%; under setting [4], 39.5%; under setting [5], 36.8%; under setting [6], 19.2%. This molecule also came in with a percent labeling under setting [7] of 27%, a percent labeling under setting [8] of 33%, a percent labeling under setting [9] of 37.1% and a percent labeling under setting [10] of 57.4%.

For `O=C(NCCS)c1ccc(-c2noc(C(F)F)n2)cc1`, the percent labeling reads like this: under setting [11], 12.1%; under setting [1], 10.4%; under setting [2], 11.5%; under setting [3], 9.9%; under setting [4], 11.5%; under setting [5], 9.1%. Moreover, the percent labeling was found to be 31% under setting [6]; 24% under setting [12]; 11.9% under setting [7]; 10.1% under setting [8]; 8% under setting [9]; 12.7% under setting [10].

In the case of `Cc1nc2ccc(NC(=O)CCS)cc2c(=O)[nH]1`, the percent labeling by setting is: under setting [1], 13.5%; under setting [2], 13.3%; under setting [3], 23.1%; under setting [4], 13.7%; under setting [5], 23.8%; under setting [6], 26.7%. Besides, the percent labeling reads like this: under setting [7], 20.9%; under setting [8], 16.3%; under setting [9], 10.8%; under setting [10], 32.6%.

For `Cc1cc(C)c(CNC(=O)CCS)c(=O)[nH]1`, the percent labeling was 16.5% under setting [1]; 30.8% under setting [2]; 41.6% under setting [3]; 32.4% under setting [4]; 32% under setting [5]; 28.6% under setting [6]. Also, the percent labeling amounted to 29.1% under setting [7], 31.4% under setting [8], 40.6% under setting [9] and 58.6% under setting [10].

In turn, `Cc1cc(=O)oc2cc(OCC(=O)NCCS)ccc12` showed a percent labeling under setting [11] of 21.3%; a percent labeling under setting [1] of 3.5%; a percent labeling under setting [2] of 12%; a percent labeling under setting [3] of 13.7%; a percent labeling under setting [4] of 18.9%; a percent labeling under setting [5] of 12.2%. This molecule also gave a percent labeling under setting [6] of 28.9%; a percent labeling under setting [12] of 35.8%; a percent labeling under setting [7] of 14.5%; a percent labeling under setting [8] of 16.2%; a percent labeling under setting [9] of 10.7%; a percent labeling under setting [10] of 22.6%.

Take `CN(Cc1ccc2n[nH]nc2c1)C(=O)CCS`: the percent labeling was found to be 27.4% under setting [1]; 34.4% under setting [2]; 38% under setting [3]; 31.8% under setting [4]; 46.3% under setting [5]; 34.9% under setting [6]. Further, the percent labeling under setting [7] came to 29.1%, the percent labeling under setting [8] is 38.6%, the percent labeling under setting [9] was 39.2% and the percent labeling under setting [10] was found to be 57.7%.

For `O=C(Cc1coc2ccc3ccccc3c12)NCCS`, the percent labeling stood at 40.4% under setting [11]; 17.5% under setting [1]; 19.3% under setting [2]; 12% under setting [3]; 22.2% under setting [4]; 18.8% under setting [5]. The percent labeling was determined as 34.9% under setting [6]; 28.8% under setting [12]; 14.8% under setting [7]; 16.4% under setting [8]; 12.4% under setting [9]; 17.8% under setting [10].

Turning to `O=C(CCS)NCC1CC2(CC2)S(=O)(=O)N1` (stereo not given), the percent labeling runs as follows: under setting [1], 11.8%; under setting [2], 25.3%; under setting [3], 25.1%; under setting [4], 25.5%; under setting [5], 26.2%; under setting [6], 11%. The percent labeling worked out at 11.9% under setting [7], 30.6% under setting [8], 33% under setting [9] and 42.6% under setting [10].

With `CN1CCCC(c2cccc(C(=O)NCCS)c2)C1` (stereo not given), the percent labeling was found to be 49.7% under setting [11]; 35% under setting [1]; 52.1% under setting [2]; 46.1% under setting [3]; 49.7% under setting [4]; 55.2% under setting [5]. For the same molecule, the percent labeling was determined as 69.4% under setting [6]; 63.6% under setting [12]; 41.3% under setting [7]; 35.3% under setting [8]; 35.5% under setting [9]; 64.5% under setting [10].

Regarding `O=C(CCS)N1CCc2ccccc2C1c1nc2ccccc2[nH]1` (stereo not given), the percent labeling under setting [1] amounted to 24.2%; the percent labeling under setting [2] amounted to 19.1%; the percent labeling under setting [3] turned out to be 23.6%; the percent labeling under setting [4] is 19.7%; the percent labeling under setting [5] amounted to 35.1%; the percent labeling under setting [6] worked out at 22.2%. Besides, the percent labeling is 20.8% under setting [7], 16.7% under setting [8], 10.9% under setting [9] and 49.2% under setting [10].

For the molecule `O=C(Cc1ccc(C2CCCCC2)cc1)NCCS`, the percent labeling by setting is: under setting [11], 42%; under setting [1], 19.3%; under setting [2], 35.6%; under setting [3], 8.3%; under setting [4], 29.2%; under setting [5], 11.1%. In addition, the percent labeling reads like this: under setting [6], 30.6%; under setting [12], 23.6%; under setting [7], 12%; under setting [8], 18.6%; under setting [9], 9.5%; under setting [10], 14.4%.

Turning to `O=C(CCS)Nc1cccc(OCc2cccc(F)c2)c1`, the percent labeling runs as follows: under setting [1], 17.2%; under setting [2], 32.5%; under setting [3], 20.2%; under setting [4], 14.4%; under setting [5], 24.7%; under setting [6], 36.4%. For the same molecule, the percent labeling came out at 19.9% under setting [7], 16.4% under setting [8], 11.9% under setting [9] and 38.1% under setting [10].
